One experiment addresses FLAG-NEIL1 (human) (UniProt Q96FI4). Kind of experiment: co-IP; FLAG M2 antibody agarose, 3 h at 4°C, from chromatin or nuclear lysates of HEK293 (also U2OS) cells after degradation of nucleic acids; washed with TBS; immunoblot; cells with or without irradiation (3 Gy) or bleomycin. In general terms: A western blot detects proteins with antibodies after separation by electrophoresis.

Protein sequences, listed by entry. Tags and fused reporters are not part of them.
UniProt P78527: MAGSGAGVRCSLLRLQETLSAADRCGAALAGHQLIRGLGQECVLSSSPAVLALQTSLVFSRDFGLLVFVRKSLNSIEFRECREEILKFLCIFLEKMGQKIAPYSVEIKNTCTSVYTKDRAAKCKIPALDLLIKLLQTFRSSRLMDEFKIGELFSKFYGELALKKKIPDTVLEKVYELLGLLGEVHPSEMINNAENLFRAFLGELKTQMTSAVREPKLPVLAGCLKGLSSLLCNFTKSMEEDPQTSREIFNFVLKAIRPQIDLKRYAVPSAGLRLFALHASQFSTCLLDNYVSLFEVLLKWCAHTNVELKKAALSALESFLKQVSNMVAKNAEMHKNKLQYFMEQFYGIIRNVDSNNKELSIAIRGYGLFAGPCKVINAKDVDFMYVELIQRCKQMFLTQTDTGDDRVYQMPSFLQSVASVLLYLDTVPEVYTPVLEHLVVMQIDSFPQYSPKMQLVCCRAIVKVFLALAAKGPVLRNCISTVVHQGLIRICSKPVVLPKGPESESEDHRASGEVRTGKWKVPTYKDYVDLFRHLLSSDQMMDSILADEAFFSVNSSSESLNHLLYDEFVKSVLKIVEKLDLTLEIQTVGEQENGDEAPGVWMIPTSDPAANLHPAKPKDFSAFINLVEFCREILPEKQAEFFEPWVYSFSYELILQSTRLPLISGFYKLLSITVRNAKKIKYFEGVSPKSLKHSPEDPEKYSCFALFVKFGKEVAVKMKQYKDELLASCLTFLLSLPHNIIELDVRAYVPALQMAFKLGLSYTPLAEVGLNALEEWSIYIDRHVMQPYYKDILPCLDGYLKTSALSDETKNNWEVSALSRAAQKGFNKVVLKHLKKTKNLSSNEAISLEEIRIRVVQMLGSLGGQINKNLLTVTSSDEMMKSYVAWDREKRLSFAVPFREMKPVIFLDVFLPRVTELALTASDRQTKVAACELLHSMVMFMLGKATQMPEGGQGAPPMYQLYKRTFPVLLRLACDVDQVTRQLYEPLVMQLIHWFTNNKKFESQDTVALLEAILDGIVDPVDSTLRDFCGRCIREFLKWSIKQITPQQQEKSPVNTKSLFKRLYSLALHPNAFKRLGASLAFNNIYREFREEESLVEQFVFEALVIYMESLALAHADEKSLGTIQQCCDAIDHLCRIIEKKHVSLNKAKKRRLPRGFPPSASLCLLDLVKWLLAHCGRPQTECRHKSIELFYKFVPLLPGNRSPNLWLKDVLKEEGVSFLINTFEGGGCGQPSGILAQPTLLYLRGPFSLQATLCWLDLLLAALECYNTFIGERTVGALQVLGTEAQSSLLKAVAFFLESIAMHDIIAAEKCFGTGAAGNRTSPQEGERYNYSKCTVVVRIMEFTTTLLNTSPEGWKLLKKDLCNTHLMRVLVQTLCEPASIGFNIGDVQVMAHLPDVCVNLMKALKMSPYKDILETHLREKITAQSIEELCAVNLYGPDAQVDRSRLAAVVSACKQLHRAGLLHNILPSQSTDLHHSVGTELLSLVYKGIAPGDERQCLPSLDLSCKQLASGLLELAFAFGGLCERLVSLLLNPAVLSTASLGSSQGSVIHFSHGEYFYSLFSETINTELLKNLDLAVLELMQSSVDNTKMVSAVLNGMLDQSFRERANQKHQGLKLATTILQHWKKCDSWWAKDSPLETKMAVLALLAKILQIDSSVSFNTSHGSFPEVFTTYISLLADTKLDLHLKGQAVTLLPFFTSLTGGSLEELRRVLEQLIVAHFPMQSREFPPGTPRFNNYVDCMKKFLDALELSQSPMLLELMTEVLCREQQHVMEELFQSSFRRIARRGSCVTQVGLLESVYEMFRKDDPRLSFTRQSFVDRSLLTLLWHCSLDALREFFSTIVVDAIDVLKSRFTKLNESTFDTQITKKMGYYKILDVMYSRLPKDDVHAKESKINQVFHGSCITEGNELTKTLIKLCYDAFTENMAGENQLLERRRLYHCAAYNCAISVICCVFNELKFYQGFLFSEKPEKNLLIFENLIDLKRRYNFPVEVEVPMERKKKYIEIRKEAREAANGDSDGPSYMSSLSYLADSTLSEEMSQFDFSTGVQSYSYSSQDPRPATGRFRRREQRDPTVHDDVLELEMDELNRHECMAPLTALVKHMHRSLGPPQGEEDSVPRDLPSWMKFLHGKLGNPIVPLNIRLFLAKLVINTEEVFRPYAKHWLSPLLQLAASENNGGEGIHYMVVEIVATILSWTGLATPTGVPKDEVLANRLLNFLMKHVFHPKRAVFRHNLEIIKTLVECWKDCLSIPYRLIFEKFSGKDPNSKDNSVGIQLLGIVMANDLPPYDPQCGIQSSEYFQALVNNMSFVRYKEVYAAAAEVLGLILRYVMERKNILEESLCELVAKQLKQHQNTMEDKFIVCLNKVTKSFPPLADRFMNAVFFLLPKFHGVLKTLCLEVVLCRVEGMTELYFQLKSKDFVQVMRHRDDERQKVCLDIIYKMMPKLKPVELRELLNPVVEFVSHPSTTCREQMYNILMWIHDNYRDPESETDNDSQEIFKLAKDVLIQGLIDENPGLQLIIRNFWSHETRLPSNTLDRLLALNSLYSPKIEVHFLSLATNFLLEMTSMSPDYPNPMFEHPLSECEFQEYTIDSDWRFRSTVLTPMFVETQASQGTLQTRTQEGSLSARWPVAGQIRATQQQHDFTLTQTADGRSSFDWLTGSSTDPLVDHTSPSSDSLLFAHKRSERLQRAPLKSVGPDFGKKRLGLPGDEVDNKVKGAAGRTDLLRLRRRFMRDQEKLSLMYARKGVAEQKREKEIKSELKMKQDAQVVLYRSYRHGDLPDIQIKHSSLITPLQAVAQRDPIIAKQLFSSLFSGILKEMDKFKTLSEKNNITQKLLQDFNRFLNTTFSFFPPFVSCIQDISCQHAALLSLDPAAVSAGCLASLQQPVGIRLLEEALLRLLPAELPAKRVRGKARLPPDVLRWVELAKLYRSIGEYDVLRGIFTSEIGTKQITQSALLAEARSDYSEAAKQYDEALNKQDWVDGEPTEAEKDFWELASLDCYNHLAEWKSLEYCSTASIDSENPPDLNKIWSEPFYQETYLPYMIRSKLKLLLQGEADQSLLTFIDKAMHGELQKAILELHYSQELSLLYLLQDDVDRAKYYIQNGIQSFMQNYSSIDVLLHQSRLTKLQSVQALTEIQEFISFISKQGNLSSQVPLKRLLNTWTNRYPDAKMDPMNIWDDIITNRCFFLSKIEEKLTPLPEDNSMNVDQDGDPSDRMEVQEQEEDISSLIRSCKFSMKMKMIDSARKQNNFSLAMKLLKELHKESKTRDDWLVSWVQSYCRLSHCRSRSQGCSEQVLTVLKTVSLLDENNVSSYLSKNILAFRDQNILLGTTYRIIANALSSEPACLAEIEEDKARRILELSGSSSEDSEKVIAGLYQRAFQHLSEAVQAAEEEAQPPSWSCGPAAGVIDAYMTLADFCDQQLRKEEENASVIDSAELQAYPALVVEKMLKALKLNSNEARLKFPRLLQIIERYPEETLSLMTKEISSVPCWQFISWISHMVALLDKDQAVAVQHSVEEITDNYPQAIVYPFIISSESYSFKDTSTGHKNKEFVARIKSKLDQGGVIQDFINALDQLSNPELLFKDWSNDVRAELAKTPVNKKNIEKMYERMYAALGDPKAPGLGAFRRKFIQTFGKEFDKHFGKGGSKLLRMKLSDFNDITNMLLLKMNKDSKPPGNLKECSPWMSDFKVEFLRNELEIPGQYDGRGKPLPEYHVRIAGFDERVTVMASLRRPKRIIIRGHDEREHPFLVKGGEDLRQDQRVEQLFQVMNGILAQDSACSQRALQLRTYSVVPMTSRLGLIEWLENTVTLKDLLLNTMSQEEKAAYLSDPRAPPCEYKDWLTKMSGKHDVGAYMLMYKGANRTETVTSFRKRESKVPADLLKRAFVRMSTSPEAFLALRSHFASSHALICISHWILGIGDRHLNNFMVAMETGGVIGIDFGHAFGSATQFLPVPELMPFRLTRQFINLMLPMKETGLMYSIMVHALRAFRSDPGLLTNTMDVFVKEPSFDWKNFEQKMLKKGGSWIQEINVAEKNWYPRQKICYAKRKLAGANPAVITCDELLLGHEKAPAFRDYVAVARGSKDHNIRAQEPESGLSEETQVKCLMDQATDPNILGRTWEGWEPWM
UniProt P09874: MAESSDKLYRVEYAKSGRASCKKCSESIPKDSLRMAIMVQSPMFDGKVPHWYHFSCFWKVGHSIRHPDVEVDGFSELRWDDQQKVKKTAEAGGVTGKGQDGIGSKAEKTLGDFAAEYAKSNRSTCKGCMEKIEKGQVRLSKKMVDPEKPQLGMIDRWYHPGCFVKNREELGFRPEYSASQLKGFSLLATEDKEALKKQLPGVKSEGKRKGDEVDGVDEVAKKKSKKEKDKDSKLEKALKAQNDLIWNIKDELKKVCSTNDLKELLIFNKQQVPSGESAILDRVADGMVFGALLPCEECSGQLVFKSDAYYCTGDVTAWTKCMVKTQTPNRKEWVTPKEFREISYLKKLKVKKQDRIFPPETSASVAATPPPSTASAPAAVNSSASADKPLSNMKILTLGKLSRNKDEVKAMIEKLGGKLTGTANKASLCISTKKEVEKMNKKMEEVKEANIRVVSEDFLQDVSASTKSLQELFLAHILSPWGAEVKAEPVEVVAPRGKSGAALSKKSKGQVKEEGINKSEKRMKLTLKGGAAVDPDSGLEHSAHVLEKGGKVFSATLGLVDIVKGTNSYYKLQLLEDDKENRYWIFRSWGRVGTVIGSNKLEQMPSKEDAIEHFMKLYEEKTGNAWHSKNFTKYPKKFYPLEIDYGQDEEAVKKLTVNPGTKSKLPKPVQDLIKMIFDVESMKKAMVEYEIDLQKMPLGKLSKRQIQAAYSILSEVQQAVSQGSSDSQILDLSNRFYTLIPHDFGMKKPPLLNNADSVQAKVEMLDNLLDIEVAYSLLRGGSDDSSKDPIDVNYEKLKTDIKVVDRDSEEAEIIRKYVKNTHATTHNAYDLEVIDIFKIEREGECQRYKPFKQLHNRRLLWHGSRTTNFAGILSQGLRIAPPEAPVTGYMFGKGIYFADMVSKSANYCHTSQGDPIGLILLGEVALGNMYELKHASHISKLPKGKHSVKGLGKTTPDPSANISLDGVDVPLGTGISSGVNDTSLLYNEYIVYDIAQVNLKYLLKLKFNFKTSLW
UniProt Q13426: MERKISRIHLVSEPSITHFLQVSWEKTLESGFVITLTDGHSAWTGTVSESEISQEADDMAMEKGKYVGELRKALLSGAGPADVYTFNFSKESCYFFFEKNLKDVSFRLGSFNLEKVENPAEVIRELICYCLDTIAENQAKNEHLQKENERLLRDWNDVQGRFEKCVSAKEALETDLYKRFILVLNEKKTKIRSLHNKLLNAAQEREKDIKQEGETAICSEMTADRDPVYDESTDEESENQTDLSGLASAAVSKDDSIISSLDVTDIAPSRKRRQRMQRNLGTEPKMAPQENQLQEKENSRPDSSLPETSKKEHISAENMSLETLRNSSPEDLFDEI

In experiment [1] the target is NEIL1, endogenous (human (endogenous in HEK293 and U2OS)) (UniProt Q96FI4). Kind of experiment: co-IP; endogenous co-IP with NEIL1 antibody, with or without irradiation.
Experiment [2] concerns the target NEIL1 C-terminal domain (CTD) deletion mutant (N311)-FLAG (human) (UniProt Q96FI4). Kind of experiment: co-IP; FLAG M2 antibody agarose, 3 h at 4°C, from chromatin or nuclear lysates of HEK293 (also U2OS) cells after degradation of nucleic acids; washed with TBS; immunoblot; cells with or without irradiation (3 Gy) or bleomycin.
The target in the next experiment is FLAG-NEIL2 (human) (UniProt Q969S2). Described as above.
Experiment [3] concerns the target SAF-A-FLAG (WT) (human) (UniProt Q00839). The experiment is described as above.
Experiment [4] deals with FLAG-tagged N-terminal deletion mutant APE1 (NΔ33) (human) (UniProt P27695). The experiment is described as above.
For experiment [5], the target named is His-tagged WT SAF-A (human) (UniProt Q00839).
The target of another experiment is FLAG-(WT)-APE1 (human) (UniProt P27695). Kind of experiment: co-IP; FLAG M2 antibody agarose, 3 h at 4°C, from chromatin or nuclear lysates of HEK293 (also U2OS) cells after degradation of nucleic acids; washed with TBS; immunoblot; cells with or without irradiation (3 Gy) or bleomycin.
Experiment [6] deals with His-tagged SAF-A S59D mutant (human) (UniProt Q00839). Kind of experiment: pull-down; His-tagged WT or S59D SAF-A bound to Ni-NTA beads, mixed with full-length NEIL1 or Ku in TBS, 4 h at 4°C, five washes, immunoblot; both purified.
For experiment [7], the target named is His-tagged WT SAF-A (human) (UniProt Q00839). Described as above.
For experiment [8], the target named is FLAG-tagged non-phosphorylable S59A mutant of SAF-A (human) (UniProt Q00839). Kind of experiment: proximity ligation; Duolink PLA in fixed HEK293 cells, with or without 3 Gy X-rays; NEIL1 (rabbit) and FLAG (mouse) or Ku antibodies.
Experiment [9] addresses SAF-A-FLAG (WT) (human) (UniProt Q00839). The description is as above.

Where two headings read alike, the source gives them in different places. Results are given in words; binding and its absence hold for the method and conditions named. For some assays here: Binding seen in cells or lysates may run through a third protein. Some binding calls cover weakened binding; strength is not graded here. For some assays here: Where a sequence is shown, tags or fusion partners need not be part of it.

Consider “PNKP, endogenous (from UniProt Q96T60 1-521) (enzyme)”, for which the binding result (in the experiment with FLAG-NEIL1 (human); in [1]) was “binds” each time.
On to “DNA-PKcs, endogenous (from UniProt P78527 1-4128) (enzyme)”, for which the binding result in experiment [2] is reported as “no binding”; in the experiment with FLAG-NEIL2 (human), “binds”; in the experiment with SAF-A-FLAG (WT) (human) [3], “binds”; with FLAG-NEIL1 (human), “binds”; in experiment [1] it was “binds”.
Regarding “PARP1, endogenous (from UniProt P09874 1-1014) (enzyme)”, the binding entry in experiment [4] was “no binding”.
Take “XRCC1, endogenous (from UniProt P18887 1-633)”: the binding entry in [1] is on record as “binds”.
For “NEIL1 C-terminal peptide (residues 312-349) (from UniProt Q96FI4 312-349)”, in experiment [5], the binding entry was “binds”.
Turning to “Ku (Ku70/Ku80 heterodimer), endogenous (from UniProt P12956 1-609; P13010 1-732) (complex)”, the binding result with FLAG-NEIL2 (human) is listed as “binds”.
On to “XRCC4, endogenous (from UniProt Q13426 1-336)”, for which the binding entry in the experiment with FLAG-(WT)-APE1 (human) and with FLAG-NEIL1 (human) was “no binding” each time.
In the case of “untagged full-length NEIL1 (from UniProt Q96FI4 1-390) (enzyme)”, the binding result in [6] and in experiment [7] was “binds” each time.
For “NEIL1, endogenous (from UniProt Q96FI4 1-390) (enzyme)”, the binding entry (in experiment [8]; in the experiment with SAF-A-FLAG (WT) (human) [9]) was “binds” in each case.

The values are drawn from article PMC5342353.
